In PubChem BioAssay AID1346428 (National Center for Advancing Translational Sciences (NCATS), 2018):
About 1,200 (2.5%) of roughly 48,000 compounds were called active. Another 2% or so got no clear call; they are omitted.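 Rule for the calls: active = activation of at least 60% and not above a set upper limit (about 1 call in 100 departs from these limits); inconclusive = activation of 40% to 60%, or above that upper limit; inactive = activation under 40%.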 Some of the results follow.

biological target: Probable G-protein coupled receptor 32 (Homo sapiens) (UniProt O75388); assay: qHTS for Agonists of Human Resolvin D1 Receptor DRV1; conditions: CHO-K1 GPR32 beta-arrestin PathHunter luminescence, 90 min; at 76.9 µM; active compounds read high; zero percent set by DMSO-only wells; note: 0% is about no effect
UniProt O75388, sequence (O75388 whole entry, looked up): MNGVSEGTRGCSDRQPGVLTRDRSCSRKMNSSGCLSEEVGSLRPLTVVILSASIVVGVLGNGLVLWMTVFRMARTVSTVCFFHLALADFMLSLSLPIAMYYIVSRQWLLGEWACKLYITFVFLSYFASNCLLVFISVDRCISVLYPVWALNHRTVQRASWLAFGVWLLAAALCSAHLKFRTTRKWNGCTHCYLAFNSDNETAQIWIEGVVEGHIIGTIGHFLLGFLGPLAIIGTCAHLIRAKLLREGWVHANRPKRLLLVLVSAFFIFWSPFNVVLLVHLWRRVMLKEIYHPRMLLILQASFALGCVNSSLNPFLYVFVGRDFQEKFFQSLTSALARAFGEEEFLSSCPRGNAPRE
How it was run: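 Readings come from a cell-based beta-arrestin complementation format: CHO-K1 GPR32 stable cells (2,500/well) treated 90 min with compounds, then beta-Gal substrate added for 1 h before chemiluminescence imaging.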

activation, inactive:
CC1CCN(S(=O)(=O)c2ccc3c(c2)N(CC(=O)NC(C)C)C(=O)CO3)CC1 -12.5%, Cc1ccc(-c2nnc(Nc3ccc(Cl)c(Cl)c3)c3ccccc23)cc1S(=O)(=O)NCCO -4.34%, COc1cccc(CNC(=O)CSc2ncc(S(=O)(=O)c3ccc(Br)cc3)c(=O)[nH]2)c1 7.19%, CC1CCN(S(=O)(=O)c2ccc3c(c2)CCN3C(=O)Nc2ccc(Br)cc2)CC1 -13.6%, Cc1ccccc1C(=O)N1CCN(CCc2ccccn2)CC1 5.12%, Cc1ccc(NC(=O)C2CCCN2S(=O)(=O)c2cccc3nsnc23)cc1Cl (stereo unspecified) -7.84%, COc1ccc(CNC(=O)CSc2ncc(S(=O)(=O)c3ccc(C)c(Cl)c3)c(=O)[nH]2)cc1 -21.9%, COc1ccc(CNC(=O)c2ccc3c(c2)CCN3S(=O)(=O)c2ccc(C)cc2)cc1 -7.34%, Cc1c(C(=O)Nc2ccc(C(C)C)cc2)sc2nc[nH]c(=O)c12 -6.56%, O=S(=O)(c1ccc2c(c1)CCN2)N1CCCCCC1 -28.2%, Cc1ccc2c(c1)c1c(c(=O)n(Cc3ccccc3)c(=O)n1CC(=O)NCc1ccccc1Cl)n2C 25.7%, CN(C(=O)CN1C(=O)CCSc2ccc(S(=O)(=O)N3CCCC3)cc21)c1ccccc1 -19.2%, CCc1ccc(NCc2cc3cc(OC)c(OC)cc3n(CC(=O)Nc3cc(C)ccc3C)c2=O)cc1 -43.6%, COc1ccc(S(=O)(=O)N(CC(=O)NCc2ccccc2)c2ccc(C)cc2)cc1OC 31.2%, Cc1cccc(C)c1Nc1nc2ccccc2nc1NS(=O)(=O)c1ccccc1 46.9%, COc1ccc(C(C)n2c(C)c3c(C)nnc(C)c3c2C)cc1 (stereo unspecified) 32.2%, CCC(C)OC(=O)/C(C#N)=C\c1ccc(-c2cccc(C(F)(F)F)c2)o1 (stereo unspecified) -6.53%, O=C(Cn1c(=O)nc(-c2ccccc2)c2ccccc21)NCc1ccc(F)cc1 -12.9%, COc1ccc(-c2noc(CN(C(C)C)S(=O)(=O)c3ccc(Br)cc3)n2)cc1 -2.65%, CC1=C(C(=O)N2CCN(c3cccc(C)c3C)CC2)C2(CCCCC2)OC1=O -31.2%, C=Cc1ccc(CN2C(=O)c3ccccc3Sc3ccc(C(=O)OCc4ccco4)cc32)cc1 -26.4%, O=C(Nc1ccccc1)N(Cc1ccc(F)cc1)c1ccccn1 -11%, Cc1cc(O)c(C(c2ccccc2)N2CCN(C)CC2)c(=O)n1Cc1ccco1 (stereo unspecified) -4.98%, CCOC(=O)c1c(C)[nH]c(C)c1S(=O)(=O)NCC(=O)N1CCN(c2cccc(C)c2)C(C)C1 (stereo unspecified) 1.56%, Cc1cccc(NC2=CC(c3cccc(Br)c3)N(c3cccc(C)c3)C2=O)c1 (stereo unspecified) -29.3%, COc1ccccc1-c1noc(CCCC(=O)NCc2ccco2)n1 -6.45%, Cc1cc(C)cc(NC(=O)Nc2nnc(N(C)C3CCCCC3)s2)c1 -13%, COc1ccc(C(=O)Nc2nnc(C(C)C)s2)cc1OC -11.1%, COc1ccc2sc(N(Cc3cccnc3)C(=O)COc3ccccc3)nc2c1 -20.3%, CCOc1ccc(CCNc2nc3ccccc3n3c(C)nnc23)cc1OCC -3.49%, COc1cc(NC(=O)Cn2c(=O)n(CC3CCCO3)c(=O)c3ccccc32)cc(OC)c1 (stereo unspecified) -5.05%, COc1ccc(CCNC(=O)c2ccc(Cn3c(=O)c4ccccc4n(Cc4cccc(C)c4)c3=O)cc2)cc1OC -19.2%, CCC1CCCCN1S(=O)(=O)c1cc(C(=O)Nc2ccc(C)c(F)c2)ccc1F (stereo unspecified) -12.6%, CCOCCCn1c(=N)c(C(=O)NC2CCCC2)cc2c(=O)n3cc(C)ccc3nc21 -9.87%, CCn1cnc2c(=O)oc3ccc(S(=O)(=O)Nc4ccc(OC)cc4)cc3c21 -2.88%, CCCCc1nn2c(=O)cc(COC(=O)c3ccc(NC(=O)C(CC)CC)cc3)nc2s1 -14.7%, Cc1ccc(NC(=O)c2cc3nc(-c4ccccc4)cc(-c4ccccc4)n3n2)cc1 -8.27%, CC(=O)c1ccc(NS(=O)(=O)c2ccc(-c3cnc(C4CC4)o3)cc2)cc1 19.9%, Cc1ccc(CNC(=O)c2cnn(-c3cccc(C)c3)c2C2CCN(C(=O)OC(C)(C)C)CC2)cc1 -21.2%, COc1ccccc1Cc1nc2ccccc2nc1SCC(=O)Nc1cc(Cl)ccc1OC -9.61%, COCCNC(=O)CSc1nc(-c2ccccc2)[nH]c1-c1ccc(OC)cc1 -25.9%
